Experimental data from the supplement of paper PMC7125110.
± gives the standard error. Variants at the floor of the assay are shown more often than the library holds them.

B1: glmS ribozyme (parent)
chain: AUAAAAGCGCCAGAACUACAGAAAUGUAGUUGACGAGGAGGAGGUUUAUCGAAUUUUCGGCGGAUGCCUCCAAA

What was measured:
Settings in all cases: with glucosamine-6-phosphate
[1] = variants of: B1; test: self-cleavage kobs at 40 uM GlcN6P; higher = faster cleavage; RNA array
Method in brief: (§1)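 The measurements used barcoded ribozyme variants on sequenced MiSeq chips, transcribed in situ by E. coli RNA polymerase and tracked at 37 °C with a hybridised Cy3 probe. Glucosamine-6-phosphate, 40 μM to 10 mM in HEPES/KCl/Mg(OAc)2 buffer, was flowed in while tiles were imaged over ~14 h. Baseline-normalised signals, also normalised to non-cleaving reference variants, gave per-tile medians that were fit to one- or two-exponential decays for kobs. kcat and KM resulted from weighted Michaelis–Menten fits across concentrations.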

[2] = variants of: B1; test: self-cleavage kobs at 640 uM GlcN6P; higher = faster cleavage; RNA array
Method in brief: as §1

[3] = variants of: B1; test: self-cleavage kobs at 160 uM GlcN6P; higher = faster cleavage; RNA array
Method in brief: as §1

[4] = variants of: B1; test: self-cleavage kobs at 10000 uM GlcN6P; higher = faster cleavage; RNA array
Method in brief: as §1

[5] = variants of: B1; test: self-cleavage kobs at 2500 uM GlcN6P; higher = faster cleavage; RNA array
Method in brief: as §1

## C8G U30A
[1]
  self-cleavage kobs at 40 uM GlcN6P: < 1e-05 s⁻¹
[2]
  self-cleavage kobs at 640 uM GlcN6P: < 1e-05 s⁻¹
[3]
  self-cleavage kobs at 160 uM GlcN6P: < 1e-05 s⁻¹
[4]
  self-cleavage kobs at 10000 uM GlcN6P: < 1e-05 s⁻¹

## C8G G9A C50A
[1]
  self-cleavage kobs at 40 uM GlcN6P: < 1e-05 s⁻¹
[2]
  self-cleavage kobs at 640 uM GlcN6P: < 1e-05 s⁻¹

## C8G G13C G40A
[1]
  self-cleavage kobs at 40 uM GlcN6P: < 1e-05 s⁻¹
[4]
  self-cleavage kobs at 10000 uM GlcN6P: < 1e-05 s⁻¹

## C8G A53C C58A
[1]
  self-cleavage kobs at 40 uM GlcN6P: < 1e-05 s⁻¹
[4]
  self-cleavage kobs at 10000 uM GlcN6P: < 1e-05 s⁻¹

## C8G C67G
[1]
  self-cleavage kobs at 40 uM GlcN6P: < 1e-05 s⁻¹
[2]
  self-cleavage kobs at 640 uM GlcN6P: < 1e-05 s⁻¹
[3]
  self-cleavage kobs at 160 uM GlcN6P: < 1e-05 s⁻¹
[5]
  self-cleavage kobs at 2500 uM GlcN6P: < 1e-05 s⁻¹
[4]
  self-cleavage kobs at 10000 uM GlcN6P: < 1e-05 s⁻¹

## C8A G13A A14U A64G
[1]
  self-cleavage kobs at 40 uM GlcN6P: < 1e-05 s⁻¹
[4]
  self-cleavage kobs at 10000 uM GlcN6P: < 1e-05 s⁻¹

## C8A A14G G41U
[1]
  self-cleavage kobs at 40 uM GlcN6P: < 1e-05 s⁻¹
[3]
  self-cleavage kobs at 160 uM GlcN6P: < 1e-05 s⁻¹
[4]
  self-cleavage kobs at 10000 uM GlcN6P: < 1e-05 s⁻¹

## C8A C16A G37C
[1]
  self-cleavage kobs at 40 uM GlcN6P: < 1e-05 s⁻¹

## C8G G13C U30A G37C
[1]
  self-cleavage kobs at 40 uM GlcN6P: < 1e-05 s⁻¹

## C8A G41C
[1]
  self-cleavage kobs at 40 uM GlcN6P: < 1e-05 s⁻¹
[2]
  self-cleavage kobs at 640 uM GlcN6P: < 1e-05 s⁻¹
[3]
  self-cleavage kobs at 160 uM GlcN6P: < 1e-05 s⁻¹
[5]
  self-cleavage kobs at 2500 uM GlcN6P: < 1e-05 s⁻¹
[4]
  self-cleavage kobs at 10000 uM GlcN6P: < 1e-05 s⁻¹

## G7U G9C C11G A12C U55A
[1]
  self-cleavage kobs at 40 uM GlcN6P: < 1e-05 s⁻¹
[4]
  self-cleavage kobs at 10000 uM GlcN6P: < 1e-05 s⁻¹

## C8G A12C
[1]
  self-cleavage kobs at 40 uM GlcN6P: < 1e-05 s⁻¹
[2]
  self-cleavage kobs at 640 uM GlcN6P: < 1e-05 s⁻¹
[3]
  self-cleavage kobs at 160 uM GlcN6P: < 1e-05 s⁻¹
[4]
  self-cleavage kobs at 10000 uM GlcN6P: < 1e-05 s⁻¹

## C8A U54A
[1]
  self-cleavage kobs at 40 uM GlcN6P: < 1e-05 s⁻¹
[2]
  self-cleavage kobs at 640 uM GlcN6P: < 1e-05 s⁻¹
[4]
  self-cleavage kobs at 10000 uM GlcN6P: < 1e-05 s⁻¹

## C8A U31A C50G A53U C70A
[1]
  self-cleavage kobs at 40 uM GlcN6P: 0.000306 ± 7.3e-05 s⁻¹
[4]
  self-cleavage kobs at 10000 uM GlcN6P: 0.000515 ± 0.00016 s⁻¹

## G7C U30G A53G G60A U69A C70A
[1]
  self-cleavage kobs at 40 uM GlcN6P: < 1e-05 s⁻¹
[4]
  self-cleavage kobs at 10000 uM GlcN6P: < 1e-05 s⁻¹

## C8A G51C
[1]
  self-cleavage kobs at 40 uM GlcN6P: < 1e-05 s⁻¹
[2]
  self-cleavage kobs at 640 uM GlcN6P: < 1e-05 s⁻¹
[3]
  self-cleavage kobs at 160 uM GlcN6P: < 1e-05 s⁻¹
[5]
  self-cleavage kobs at 2500 uM GlcN6P: < 1e-05 s⁻¹
[4]
  self-cleavage kobs at 10000 uM GlcN6P: < 1e-05 s⁻¹

## G7U G29U G35U G41U C70G
[1]
  self-cleavage kobs at 40 uM GlcN6P: < 1e-05 s⁻¹
[5]
  self-cleavage kobs at 2500 uM GlcN6P: < 1e-05 s⁻¹

## C8A C10A G44U U46A C67A
[1]
  self-cleavage kobs at 40 uM GlcN6P: < 1e-05 s⁻¹
[5]
  self-cleavage kobs at 2500 uM GlcN6P: < 1e-05 s⁻¹

## C8G A53U
[1]
  self-cleavage kobs at 40 uM GlcN6P: < 1e-05 s⁻¹
[2]
  self-cleavage kobs at 640 uM GlcN6P: < 1e-05 s⁻¹
[4]
  self-cleavage kobs at 10000 uM GlcN6P: < 1e-05 s⁻¹

## C8G U31C A33G
[1]
  self-cleavage kobs at 40 uM GlcN6P: < 1e-05 s⁻¹
[3]
  self-cleavage kobs at 160 uM GlcN6P: < 1e-05 s⁻¹
[5]
  self-cleavage kobs at 2500 uM GlcN6P: < 1e-05 s⁻¹

## C8A A42G
[1]
  self-cleavage kobs at 40 uM GlcN6P: < 1e-05 s⁻¹
[2]
  self-cleavage kobs at 640 uM GlcN6P: < 1e-05 s⁻¹
[3]
  self-cleavage kobs at 160 uM GlcN6P: < 1e-05 s⁻¹
[4]
  self-cleavage kobs at 10000 uM GlcN6P: < 1e-05 s⁻¹

## G7C G63A
[1]
  self-cleavage kobs at 40 uM GlcN6P: < 1e-05 s⁻¹
[2]
  self-cleavage kobs at 640 uM GlcN6P: < 1e-05 s⁻¹
[4]
  self-cleavage kobs at 10000 uM GlcN6P: < 1e-05 s⁻¹

## C8G C34A A53C G60C
[1]
  self-cleavage kobs at 40 uM GlcN6P: < 1e-05 s⁻¹
[2]
  self-cleavage kobs at 640 uM GlcN6P: < 1e-05 s⁻¹
[3]
  self-cleavage kobs at 160 uM GlcN6P: < 1e-05 s⁻¹
[5]
  self-cleavage kobs at 2500 uM GlcN6P: < 1e-05 s⁻¹

## C8A C10U C34G
[1]
  self-cleavage kobs at 40 uM GlcN6P: < 1e-05 s⁻¹

## C8G A14C G37U U54G
[1]
  self-cleavage kobs at 40 uM GlcN6P: < 1e-05 s⁻¹
[4]
  self-cleavage kobs at 10000 uM GlcN6P: < 1e-05 s⁻¹

## C8A C11U G38C C50U
[1]
  self-cleavage kobs at 40 uM GlcN6P: < 1e-05 s⁻¹
[2]
  self-cleavage kobs at 640 uM GlcN6P: < 1e-05 s⁻¹
[5]
  self-cleavage kobs at 2500 uM GlcN6P: < 1e-05 s⁻¹

## G7U A14U U30A U31C G43U U54C C58G G60U C68G
[1]
  self-cleavage kobs at 40 uM GlcN6P: < 1e-05 s⁻¹
[4]
  self-cleavage kobs at 10000 uM GlcN6P: < 1e-05 s⁻¹

## C8G G60C
[1]
  self-cleavage kobs at 40 uM GlcN6P: < 1e-05 s⁻¹
[3]
  self-cleavage kobs at 160 uM GlcN6P: < 1e-05 s⁻¹
[4]
  self-cleavage kobs at 10000 uM GlcN6P: < 1e-05 s⁻¹

## G7U G44U A48U
[1]
  self-cleavage kobs at 40 uM GlcN6P: < 1e-05 s⁻¹
[4]
  self-cleavage kobs at 10000 uM GlcN6P: < 1e-05 s⁻¹

## C8A G38A
[1]
  self-cleavage kobs at 40 uM GlcN6P: < 1e-05 s⁻¹
[2]
  self-cleavage kobs at 640 uM GlcN6P: < 1e-05 s⁻¹
[3]
  self-cleavage kobs at 160 uM GlcN6P: < 1e-05 s⁻¹
[5]
  self-cleavage kobs at 2500 uM GlcN6P: < 1e-05 s⁻¹
[4]
  self-cleavage kobs at 10000 uM GlcN6P: < 1e-05 s⁻¹

## C8A G43C
[1]
  self-cleavage kobs at 40 uM GlcN6P: < 1e-05 s⁻¹
[2]
  self-cleavage kobs at 640 uM GlcN6P: < 1e-05 s⁻¹
[4]
  self-cleavage kobs at 10000 uM GlcN6P: < 1e-05 s⁻¹

## C8A G43U
[1]
  self-cleavage kobs at 40 uM GlcN6P: < 1e-05 s⁻¹
[5]
  self-cleavage kobs at 2500 uM GlcN6P: < 1e-05 s⁻¹
[4]
  self-cleavage kobs at 10000 uM GlcN6P: < 1e-05 s⁻¹

## C8G U46G G59C
[1]
  self-cleavage kobs at 40 uM GlcN6P: < 1e-05 s⁻¹
[3]
  self-cleavage kobs at 160 uM GlcN6P: < 1e-05 s⁻¹
[4]
  self-cleavage kobs at 10000 uM GlcN6P: < 1e-05 s⁻¹

## C8A C58A
[1]
  self-cleavage kobs at 40 uM GlcN6P: < 1e-05 s⁻¹
[2]
  self-cleavage kobs at 640 uM GlcN6P: < 1e-05 s⁻¹
[3]
  self-cleavage kobs at 160 uM GlcN6P: < 1e-05 s⁻¹

## G7C G13A
[1]
  self-cleavage kobs at 40 uM GlcN6P: < 1e-05 s⁻¹
[2]
  self-cleavage kobs at 640 uM GlcN6P: < 1e-05 s⁻¹
[3]
  self-cleavage kobs at 160 uM GlcN6P: < 1e-05 s⁻¹
[5]
  self-cleavage kobs at 2500 uM GlcN6P: < 1e-05 s⁻¹
[4]
  self-cleavage kobs at 10000 uM GlcN6P: < 1e-05 s⁻¹

## G7C C16A
[1]
  self-cleavage kobs at 40 uM GlcN6P: < 1e-05 s⁻¹

## C8G G35A C58G
[1]
  self-cleavage kobs at 40 uM GlcN6P: < 1e-05 s⁻¹

## C8A G38U C50G
[1]
  self-cleavage kobs at 40 uM GlcN6P: 4.1e-05 ± 2e-05 s⁻¹

## G7U U31A G63A
[1]
  self-cleavage kobs at 40 uM GlcN6P: < 1e-05 s⁻¹
[4]
  self-cleavage kobs at 10000 uM GlcN6P: < 1e-05 s⁻¹

## G7C G40U C71U
[1]
  self-cleavage kobs at 40 uM GlcN6P: < 1e-05 s⁻¹
[2]
  self-cleavage kobs at 640 uM GlcN6P: < 1e-05 s⁻¹

## G7U A36U G40C
[1]
  self-cleavage kobs at 40 uM GlcN6P: < 1e-05 s⁻¹

## C8A G32U
[1]
  self-cleavage kobs at 40 uM GlcN6P: < 1e-05 s⁻¹

## C8G G9A A39U U47G C68U
[1]
  self-cleavage kobs at 40 uM GlcN6P: < 1e-05 s⁻¹

## G7C G35U
[1]
  self-cleavage kobs at 40 uM GlcN6P: < 1e-05 s⁻¹
[3]
  self-cleavage kobs at 160 uM GlcN6P: < 1e-05 s⁻¹
[5]
  self-cleavage kobs at 2500 uM GlcN6P: < 1e-05 s⁻¹

## C8A C34G
[1]
  self-cleavage kobs at 40 uM GlcN6P: < 1e-05 s⁻¹
[2]
  self-cleavage kobs at 640 uM GlcN6P: < 1e-05 s⁻¹
[3]
  self-cleavage kobs at 160 uM GlcN6P: < 1e-05 s⁻¹
[5]
  self-cleavage kobs at 2500 uM GlcN6P: < 1e-05 s⁻¹
[4]
  self-cleavage kobs at 10000 uM GlcN6P: < 1e-05 s⁻¹

## G7C G9A A39G C50G U55A
[1]
  self-cleavage kobs at 40 uM GlcN6P: < 1e-05 s⁻¹

## C8G C10U G40U U47A G66C C68U
[1]
  self-cleavage kobs at 40 uM GlcN6P: < 1e-05 s⁻¹
[5]
  self-cleavage kobs at 2500 uM GlcN6P: < 1e-05 s⁻¹
[4]
  self-cleavage kobs at 10000 uM GlcN6P: < 1e-05 s⁻¹

## C8G G43C
[1]
  self-cleavage kobs at 40 uM GlcN6P: < 1e-05 s⁻¹

## G7C G41A
[1]
  self-cleavage kobs at 40 uM GlcN6P: < 1e-05 s⁻¹
[2]
  self-cleavage kobs at 640 uM GlcN6P: < 1e-05 s⁻¹
[3]
  self-cleavage kobs at 160 uM GlcN6P: < 1e-05 s⁻¹
[4]
  self-cleavage kobs at 10000 uM GlcN6P: < 1e-05 s⁻¹

## G7U G37C G43A
[1]
  self-cleavage kobs at 40 uM GlcN6P: < 1e-05 s⁻¹
[2]
  self-cleavage kobs at 640 uM GlcN6P: < 1e-05 s⁻¹
[3]
  self-cleavage kobs at 160 uM GlcN6P: < 1e-05 s⁻¹
[5]
  self-cleavage kobs at 2500 uM GlcN6P: < 1e-05 s⁻¹
[4]
  self-cleavage kobs at 10000 uM GlcN6P: < 1e-05 s⁻¹
